Source: the RNAGym collection of RNA variant scans (doi:10.7554/elife.90254)
The source gives no read counts; variants with many changes may rest on few reads.

B1: LINE1-mini (parent)
chain: GGCAGAGCUCAACACAGCGUGGCAAAGUGGCUGUGGCUAGACUGCC

Variants of: B1
Assay: self-cleavage, relative activity (ratio to wild type); higher = more cleavage; in vitro, sequencing; the parent is a self-cleaving ribozyme

Variant	self-cleavage
GGCAGAGCUCAACAACGCUUGGCAAAGUGGCUGUGGCUAGACUGCC [C15A A16C G19U]	0.05
GGCAGAGCUCUAGACAGCUUGGCAAAAUGGCUGUGGUUAGACUGCC [A11U C13G G19U G27A C37U]	0.02
GGCAUAGCUCGACACAGCGUGGCAAAGUGGCAGCGGCUAGACUGCC [G5U A11G U32A U34C]	0.01
GGCAGAGCUUAACACAGCGUGGCAAAGUGGCAGUGGCUAUAUGGAC [C10U U32A G40U C42U U43G C45A]	0.02
GGCAGAGCUCUACACAGCAUGGCACAGUGGCUGUGGCUAGACUGCC [A11U G19A A25C]	0.13
GCCAGAUCUCAACACAGCCUGGCAAAGUGGCUCUGGCCAGACUGCC [G2C G7U G19C G33C U38C]	0.04
GGCAGGGCGCAACACAGCGAGGCAAAGAGGCCGUGGCUAGACUGCC [A6G U9G U20A U28A U32C]	0.1
GACAGAGAUCAACACAGCGUGGCACAGUGGCUAUGGCUAGACUGCC [G2A C8A A25C G33A]	0.13
GGCAGAGCUCAACACAGCGUGGCACAGUGUCUGCGGCAAGAAUGCC [A25C G30U U34C U38A C42A]	0.01
GGCAGAGCUCAACACAGCCUGGCAAGGUGAUUGUGGCUAGACUGCC [G19C A26G G30A C31U]	0.25
GGCUGAGCUCAUCACAGCGUGGCAAAGUGGCUGAGGCUAGCCUGCC [A4U A12U U34A A41C]	0.08
GGCAGAGCUCAACACAGCGUCGCAAAGUGUCUGUGGCCAGACUGCA [G21C G30U U38C C46A]	0.25
GGCAAAGCUAAACACAGAGUGGCAAAGUGGCUGCGGCUUGACUGCU [G5A C10A C18A U34C A39U C46U]	0.02
GGCCGAGCUCAUCACAGCGUGGCAAAGUGGCUUUAGCUAGACUGCC [A4C A12U G33U G35A]	0
GGCAGUGCUCAACACAGCGUGGCAAAGUGGCGGUGGCUACACUGCC [A6U U32G G40C]	0.07
GGCAGAGCGCAACACAGCAUGGCAAAGUGGCGGUGGCUAGACUGCC [U9G G19A U32G]	0.1
GGCACAGCUCAACCCAGCGUGGCAAAGUGGCUGUUGCUAGACAGAC [G5C A14C G35U U43A C45A]	0.01
GGCAGAGCUAAACACAGCGUGGCAAAGUGGAUGUGGCUUGACUGAA [C10A C31A A39U C45A C46A]	0.03
GGCAGAGCUCAAUACAGCAUGGCAAAGUGGCUGUGGCUAUACUGCC [C13U G19A G40U]	0.01

Variant	self-cleavage
GGCAGAGCUCAACACAGCGUGGCGCACUGGCUGUGGCUAGAAUGUC [A24G A25C G27C C42A C45U]	0.1
AGCAGCGCUCAACACAGCGUUGCAAAGUGGCCGUGGCUAGACUGCC [G1A A6C G21U U32C]	0.11
GGCAGAUAUCAACACAGUGUGGCAAAGUAGUUGUUGCUAGACUGCC [G7U C8A C18U G29A C31U G35U]	0.37
GGGAAAGCUCAACACAGCGUGUCAGAGUGGCUGUGCCUAGACUGCC [C3G G5A G22U A25G G36C]	0.11
GGCAGAGCUCAACACAGCGUGGCACAGUAUCUGUGGGCAGACUGCC [A25C G29A G30U C37G U38C]	0.04
GGCAGAGCGCAACACAGCGUGGCAAAGUGGCUGAGGUUAGACUGCA [U9G U34A C37U C46A]	0.01
GGCAGAGGUCAACAUAGCGUGGCAAAGUGGCUGUGGCUACACUGCC [C8G C15U G40C]	0.04
GGCAGCGAUCCACACAGCGUGGUAAAGUGGCUGUGGCUAGAAAGCC [A6C C8A A11C C23U C42A U43A]	0.01
GGCAGAGCUAAACACAGCUUGGCAGAGUGGCAGUGGCUAGACUGCC [C10A G19U A25G U32A]	0.02
GGCAGAGCUCAACACAGCGUGGCAAAAUGGCUGUGGCGAGCCUGCC [G27A U38G A41C]	0
GGCAGAGCUCAACCUAGCGUGGGAAUGUGGCUGUGGCUAAACUGCC [A14C C15U C23G A26U G40A]	0.03
GUUAGAGCUCAACACACCGUGGCAAACUGCGUGUAGCUGGACUGCC [G2U C3U G17C G27C G30C C31G G35A A39G]	0.01
GGCAGAGCUCAACUCAGUGUGGCAAAGUGGCUGUGACUAGACUGCC [A14U C18U G36A]	0.14
GGCAGAGCACAACACAGCGUGGCAAAGAGGCUGUGGUUAGACUGCC [U9A U28A C37U]	0.17
GGCAGAGCUCAACACAUCGUGGCAAAGUGGUUGUGGCUAGACUACC [G17U C31U G44A]	0.03
GGCACAGCUCAACACAGCGUGGCAGAGUGGCUGUGGGUAGACUGCA [G5C A25G C37G C46A]	0.05
CGCAGAGCUCAAAACAGCGUCGCAAAGUGCCUGUGGCUACACUGCC [G1C C13A G21C G30C G40C]	0.01
GGCAGAGCUCAACACAGCGUGGCAAUGUGGCUUUGGCGAGACAGCC [A26U G33U U38G U43A]	0.22
GGCACCGCUCAACACAGCGUGGCAAAGUGGCUGAGGCUAGACUGCC [G5C A6C U34A]	0.02

Variant	self-cleavage
GGCAGAGCUCAACACCGAGAGGCAAAGUGGCUGUGGCUAAACUGCC [A16C C18A U20A G40A]	0
GUCAGUGUUCAACACAGCAUGCCAAAAUGGGUGUGGCUAGAAUGCC [G2U A6U C8U G19A G22C G27A C31G C42A]	0.01
GGCAGAGCUCAAGACAGCGUCGCUAAGCCGCUGUGGCUAGAUUGCC [C13G G21C A24U U28C G29C C42U]	0.03
GGCAGAUCUCAACACAGCGUGGCAAAGUGGCUGUGGCUAGACUUCG [G7U G44U C46G]	0.04
GGUAGAGCUCAACACAGGGUGGCAAAGUGGCUGUGGCUAGAAUGCC [C3U C18G C42A]	0.1
GGCUGAGCUCAACACAGCCUGGCAAAGUGGCUGUGGCUAGAGUGCC [A4U G19C C42G]	0.02
GGCAGAGCUCAACACAGCGUGGCAAAGUGCCUGUGGCUUGACAGCC [G30C A39U U43A]	0.03
GGCAGAGCUGAACACAGCGUGGCAAACUGGCUGUGGCAAGACUGCC [C10G G27C U38A]	0.04
GGCAGAGCUCAACACAUCAUGGCAAAGUGGCUGUGGCUGGACUGCC [G17U G19A A39G]	0.09
GAUAGAGCUCAACACAGCGUGGCAAAGUGUCUGUGGCUAGACUGCC [G2A C3U G30U]	1.59
UGCAGAGUUCAACACAGCGUGGCAAAGUGGCUGUGGCUAGGCUGCC [G1U C8U A41G]	0.11
CGCAGAGCUAAAGACAGCGUGGCAAAGUGGCUGUGGCUAGAAUGCC [G1C C10A C13G C42A]	0.01
GGCAGAGCUCAACACAUCGUGGCAAAGUGGCUGUGGCUACACUGCU [G17U G40C C46U]	0.08
GGCAUAGCUCAACACAGCGUGGCAACGUGGCUGUGGCUAGACCGCC [G5U A26C U43C]	0.01
GGCAGAGCUCAAAACAGCGUGGCAAAUUGGAUGUGGCUAGACUGCC [C13A G27U C31A]	0.05
GGCAGAGCUCAACACAGCGGGGCAAAGAGGCUGCGGCUAGACUGCC [U20G U28A U34C]	0.16
GGCAGAGCUACACACAGCGUUGCAAAGUGGCAUAGGCUAGACUGCC [C10A A11C G21U U32A G33U U34A]	0.01
GGCAGAGCUCAACACAGCGGGGUAAAGUGGUUGUGGCUAGACUGCC [U20G C23U C31U]	0.13
